This passage reports binding results from PMC10036327.

Results are given in words; binding and its absence hold for the method and conditions named. In cells and extracts the contact can be indirect. Some results given as binding are weak or reduced against the parent protein; the word gives no strength. For part of these data: Sequences can lack the tags named with a protein.

One assay has as its target T1, FLAG-Smad4, Q13485.
T1 chain: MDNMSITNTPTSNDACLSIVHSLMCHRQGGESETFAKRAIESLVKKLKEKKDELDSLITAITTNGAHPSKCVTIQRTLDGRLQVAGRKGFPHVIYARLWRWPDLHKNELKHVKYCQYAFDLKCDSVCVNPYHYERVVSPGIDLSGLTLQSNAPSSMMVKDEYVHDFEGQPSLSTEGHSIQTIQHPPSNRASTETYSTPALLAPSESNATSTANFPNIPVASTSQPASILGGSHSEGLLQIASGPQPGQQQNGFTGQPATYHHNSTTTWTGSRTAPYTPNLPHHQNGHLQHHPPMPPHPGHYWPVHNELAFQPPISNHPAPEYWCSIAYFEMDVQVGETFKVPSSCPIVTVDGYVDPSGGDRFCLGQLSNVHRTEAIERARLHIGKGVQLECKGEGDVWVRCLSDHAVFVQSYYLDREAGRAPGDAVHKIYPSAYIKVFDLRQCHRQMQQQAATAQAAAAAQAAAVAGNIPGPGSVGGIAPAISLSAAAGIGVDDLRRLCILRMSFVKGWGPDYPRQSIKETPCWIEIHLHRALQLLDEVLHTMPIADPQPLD
Briefly: co-IP; HEK293T cells transiently transfected with tagged expression plasmids; lysates incubated with primary antibody (anti-FLAG as in Fig. 3a) and protein A Sepharose at 4 °C for 4 h; western blotting; in Fig. 5g with co-expressed FLAG-ABL1 or FLAG-ABL1-KD. Conditions: remark: other sources report otherwise.

For assay [1], the target named is T2, Smad4, endogenous in HaCaT cells (human (endogenous in HaCaT)), Q13485.
T2 chain: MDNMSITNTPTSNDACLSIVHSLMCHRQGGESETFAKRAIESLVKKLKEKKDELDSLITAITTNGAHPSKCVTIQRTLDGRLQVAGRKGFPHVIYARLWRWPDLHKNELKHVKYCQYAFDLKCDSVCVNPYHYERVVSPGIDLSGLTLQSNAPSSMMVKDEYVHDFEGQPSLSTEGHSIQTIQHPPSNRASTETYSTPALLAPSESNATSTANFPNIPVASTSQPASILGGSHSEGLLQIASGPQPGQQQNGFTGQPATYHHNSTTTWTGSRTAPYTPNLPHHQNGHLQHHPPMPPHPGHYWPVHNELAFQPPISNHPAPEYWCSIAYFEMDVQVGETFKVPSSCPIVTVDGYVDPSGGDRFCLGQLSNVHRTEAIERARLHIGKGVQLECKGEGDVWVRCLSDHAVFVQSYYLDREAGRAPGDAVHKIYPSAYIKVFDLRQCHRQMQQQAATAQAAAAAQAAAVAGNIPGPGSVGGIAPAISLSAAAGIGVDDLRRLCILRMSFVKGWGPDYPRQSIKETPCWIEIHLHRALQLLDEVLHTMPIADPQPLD
Briefly: co-IP; endogenous proteins, HaCaT cells with or without stable expression of ABL1, treated with TGF-β or SB431542; IP-western blotting. Conditions: remark: other sources report otherwise.

B1: HA-Smad2, Q15796 1-467 (protein)
chain: MSSILPFTPPVVKRLLGWKKSAGGSGGAGGGEQNGQEEKWCEKAVKSLVKKLKKTGRLDELEKAITTQNCNTKCVTIPSTCSEIWGLSTPNTIDQWDTTGLYSFSEQTRSLDGRLQVSHRKGLPHVIYCRLWRWPDLHSHHELKAIENCEYAFNLKKDEVCVNPYHYQRVETPVLPPVLVPRHTEILTELPPLDDYTHSIPENTNFPAGIEPQSNYIPETPPPGYISEDGETSDQQLNQSMDTGSPAELSPTTLSPVNHSLDLQPVTYSEPAFWCSIAYYELNQRVGETFHASQPSLTVDGFTDPSNSERFCLGLLSNVNRNATVEMTRRHIGRGVRLYYIGGEVFAECLSDSAIFVQSPNCNQRYGWHPATVCKIPPGCNLKIFNNQEFAALLAQSVNQGFEAVYQLTRMCTIRMSFVKGWGAEYRRQTVTSTPCWIELHLNGPLQWLDKVLTQMGSPSVRCSSMS
Consider B1, for which, in the assay with FLAG-Smad4, Q13485, the binding result was “binds”.

B2: Smad3 in HaCaT cells, P84022 1-425 (protein)
chain: MSSILPFTPPIVKRLLGWKKGEQNGQEEKWCEKAVKSLVKKLKKTGQLDELEKAITTQNVNTKCITIPRSLDGRLQVSHRKGLPHVIYCRLWRWPDLHSHHELRAMELCEFAFNMKKDEVCVNPYHYQRVETPVLPPVLVPRHTEIPAEFPPLDDYSHSIPENTNFPAGIEPQSNIPETPPPGYLSEDGETSDHQMNHSMDAGSPNLSPNPMSPAHNNLDLQPVTYCEPAFWCSISYYELNQRVGETFHASQPSMTVDGFTDPSNSERFCLGLLSNVNRNAAVELTRRHIGRGVRLYYIGGEVFAECLSDSAIFVQSPNCNQRYGWHPATVCKIPPGCNLKIFNNQEFAALLAQSVNQGFEAVYQLTRMCTIRMSFVKGWGAEYRRQTVTSTPCWIELHLNGPLQWLDKVLTQMGSPSIRCSSVS
On to B2, for which, in assay [1], the binding result is listed as “binds”.

B3: HA-Smad3, P84022 1-425 (protein)
chain: MSSILPFTPPIVKRLLGWKKGEQNGQEEKWCEKAVKSLVKKLKKTGQLDELEKAITTQNVNTKCITIPRSLDGRLQVSHRKGLPHVIYCRLWRWPDLHSHHELRAMELCEFAFNMKKDEVCVNPYHYQRVETPVLPPVLVPRHTEIPAEFPPLDDYSHSIPENTNFPAGIEPQSNIPETPPPGYLSEDGETSDHQMNHSMDAGSPNLSPNPMSPAHNNLDLQPVTYCEPAFWCSISYYELNQRVGETFHASQPSMTVDGFTDPSNSERFCLGLLSNVNRNAAVELTRRHIGRGVRLYYIGGEVFAECLSDSAIFVQSPNCNQRYGWHPATVCKIPPGCNLKIFNNQEFAALLAQSVNQGFEAVYQLTRMCTIRMSFVKGWGAEYRRQTVTSTPCWIELHLNGPLQWLDKVLTQMGSPSIRCSSVS
As for B3, the binding entry with FLAG-Smad4, Q13485 is “binds”.
